These results are taken from PubChem BioAssay AID488969 (Vanderbilt High Throughput Screening Facility, 2010).

Over roughly 110,000 compounds, “z-score” has its median near -0.1; the highest 2% begin near 2. This is one part of the list. Activity calls are given as the source filed them.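 Rule for the calls: active = z-score in the third read window above 3 or below -3; inactive = the rest.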

The assay has as its target Metabotropic glutamate receptor 8 (Rattus norvegicus) (UniProt P70579). Briefly: mGluR8 Gi/Go-coupled signaling modulation – cell-based, rat, thallium flux, HTS, primary screen (AID 488969). The following applies: HEK293 rat mGluR8, GIRK (G protein-gated inwardly rectifying potassium channel) thallium flux, FluoZin2; at 10 µM; stronger effect = higher value; submaximal glutamate (EC20) added with thallium.
UniProt P70579, sequence (P70579 whole entry, looked up): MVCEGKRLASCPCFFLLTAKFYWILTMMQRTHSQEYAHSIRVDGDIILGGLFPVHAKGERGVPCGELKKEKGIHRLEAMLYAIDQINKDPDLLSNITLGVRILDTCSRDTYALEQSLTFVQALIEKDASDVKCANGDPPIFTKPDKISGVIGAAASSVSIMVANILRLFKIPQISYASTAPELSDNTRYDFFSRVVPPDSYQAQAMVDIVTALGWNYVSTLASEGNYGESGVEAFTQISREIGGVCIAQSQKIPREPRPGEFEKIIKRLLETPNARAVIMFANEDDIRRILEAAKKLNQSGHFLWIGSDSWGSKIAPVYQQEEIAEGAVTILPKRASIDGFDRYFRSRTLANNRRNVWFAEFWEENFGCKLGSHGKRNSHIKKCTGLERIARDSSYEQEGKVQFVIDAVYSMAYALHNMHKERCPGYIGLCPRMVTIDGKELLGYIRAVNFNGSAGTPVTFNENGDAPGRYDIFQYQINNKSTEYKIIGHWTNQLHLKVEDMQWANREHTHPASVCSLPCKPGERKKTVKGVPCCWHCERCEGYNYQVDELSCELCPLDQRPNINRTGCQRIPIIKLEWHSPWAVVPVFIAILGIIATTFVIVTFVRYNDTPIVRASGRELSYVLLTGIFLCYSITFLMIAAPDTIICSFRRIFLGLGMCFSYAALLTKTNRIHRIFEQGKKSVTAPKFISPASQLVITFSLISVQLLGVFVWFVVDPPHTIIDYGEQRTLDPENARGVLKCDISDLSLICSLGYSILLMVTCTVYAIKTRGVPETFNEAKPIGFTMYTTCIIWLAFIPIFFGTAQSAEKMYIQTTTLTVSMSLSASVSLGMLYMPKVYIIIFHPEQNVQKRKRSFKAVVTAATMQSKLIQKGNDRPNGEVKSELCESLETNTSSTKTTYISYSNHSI
As to `O=C1N=C(N2CCCC2)S/C1=C\c1cn[nH]c1-c1ccccc1`, the z-score is -0.0679.

On to `Cc1cc(N2CCOCC2)ccc1/C=C1\SC(=O)N(C(C)C)C1=O`, for which the z-score was -0.355.

As for `C=CCn1c(N2CCCCCC2)nc2c1c(=O)[nH]c(=O)n2C`, the z-score came to 0.514.

As to `Cc1cc(C)cc(N=c2c([N+](=O)[O-])nn(-c3cccc(Cl)c3)n2O)c1`, the z-score came out at 0.232.

`O=C(Nc1ccc(Cl)cc1C(=O)NCC1CCCO1)c1ccco1` (stereo not given) displayed a z-score of -0.386.

`O=C1CSC(c2cn(-c3ccccc3)nc2-c2cc3ccccc3oc2=O)N1Cc1ccccc1` (stereo not given): the z-score came to 0.611.

On to `CCOC(=O)/C(=C\C=C1/Sc2ccccc2N1CC)C(C)=O`, for which the z-score was -0.944.

With `CCn1c(SCC(=O)Nc2cc(C(C)(C)C)nn2-c2ccccc2)nnc1-c1cccs1`, the z-score was -0.473.

`O=C(NCCc1ccc(Cl)cc1)c1ncn[nH]1`: the z-score was -1.43.

Consider `CN1CCc2c(sc3c2C(=O)NC(c2ccco2)N3)C1` (stereo not given), for which the z-score came to 0.267.

`CCOc1ccc(N2C(=O)CC(N3CCN(c4ccc(C(=O)c5ccncc5)cc4)CC3)C2=O)cc1` (stereo not given) had a z-score of 0.227.

The compound `CC1CCCC(C)N1C(=O)CSc1nc2ccccc2s1` (stereo not given) came in with a z-score of -0.0391.

The compound `COc1ccc(C(=O)NCCSC2CCCCC2)cc1` showed a z-score of -0.16.

The compound `O=C(CSCc1c(Cl)cccc1Cl)Nc1nccs1` displayed a z-score of 0.0355.

As to `O=S1(=O)CCN2C=C(Br)C=C(Br)C2=N1`, the z-score was -1.29.

In the case of `CC(C)(C)C(=O)OCC1OC(n2cnc(C(N)=O)n2)C(O)C1O` (stereo not given), the z-score was 0.2.

The compound `CCN(CC)c1ccc(/C=C(\C#N)c2nc(-c3cccs3)c(NC(C)=O)s2)cc1` registered a z-score of -0.109.

In turn, `CCOc1ccc(C(C)=O)cc1CC(C(N)=O)C(N)=O` came in with a z-score of 0.287.

For `CCCCC(=O)Nc1ccc(C(=O)Nc2ccc(OC)cc2[N+](=O)[O-])cc1`, the z-score is -0.267.

`O=C(Nc1cccc(Cl)c1)c1ccc(-n2cncn2)c([N+](=O)[O-])c1` came in with a z-score of -0.167.

`Cn1c(=O)c2c(nc(SCC(=O)NCc3ccc4c(c3)OCO4)n2Cc2ccccc2)n(C)c1=O` yielded a z-score of -0.437.

`CCOc1ccc(NC(=O)CCSc2ccc3ccccc3n2)cc1` displayed a z-score of -0.248.

The compound `CCOc1ccc(NS(=O)(=O)c2ccc(OCC(=O)NCCCOC)cc2)cc1` displayed a z-score of -0.369.

As to `CCOC(=O)/C=c1\s/c(=C\c2ccc(C)cc2)c(=O)n1CC(=O)NCc1ccco1`, the z-score amounted to 0.0354.

Take `Cc1ccc2nc(Nc3nc(-c4ccccc4)cc(=O)[nH]3)nc(C)c2c1`: the z-score is -0.448.

With `Clc1ccccc1-c1nn2c(COc3ccccc3)nnc2s1`, the z-score is active: -3.35.

With `COc1ccc(C2CC(c3ccccc3)Nc3nc(N)nn32)cc1` (stereo not given), the z-score was -0.316.

Regarding `CC1CCCC(NC(=O)CN2CCN(Cc3ccc(Cl)cc3)C2=O)C1C` (stereo not given), the z-score stood at 0.38.

Regarding `COc1cccc(CNC(=O)C(c2ccc(Cl)cc2)C(C)C)c1` (stereo not given), the z-score was -0.36.

In turn, `Nc1c(Cl)ncnc1N/N=C/c1ccccn1` gave a z-score of -0.00044.
